Reference: the supplement of paper PMC10986608
This is one part of the list. Repeats are few or missing, and single values can be far off.

Tested on: Candida albicans DPL-15
Assay: growth (OD600) after compound treatment (apparently relative to screen median) (relative growth (fraction; screen median 1.02)); DPL-15 is a caspofungin-resistant clinical isolate; higher = more fungal growth (less antifungal activity)
Conditions: 25 µM; RPMI 1640; 48 h; 30 °C

Structure (SMILES)	growth
COC(=O)C1=C(C)N(CC#Cc2cc(C)cc(C)c2)C(=O)NC1c1ccccc1 (stereo not given)	1.12
COC(=O)C#CCCCNC(=O)OC(C)(C)C	1.09
CC(C)CC1=NCCN(C)C2=C1C(c1ccc(Br)cc1)N(Cc1ccccc1)C2=O (stereo not given)	0.942
CC(C)C1=NCCN(C)C2=C1C(c1cccc(C(F)(F)F)c1)NC2=O (stereo not given)	0.923
COc1cc(OC)c2c(c1)O[C@@]1(c3ccc(Br)cc3)[C@H](c3ccccc3)[C@@H](CN(C)C)[C@@H](O)[C@@]21O	1.01
C[C@@H]1NC(=O)C[C@@H]2C[C@H](C)[C@H](c3ccccc3)N2C1=O	1.43
N#Cc1ccc(NS(=O)(=O)N2CCOCC2)cc1	1.04
CC(C)C1=NCC(C)(C)NC2=C1C(c1ccccc1)N(c1ccccc1)C2=O (stereo not given)	1.01
C=CCn1nc2c(c1CC(C)C)C(c1ccc(F)cc1)N(c1ccc(OC)cc1)C2=O (stereo not given)	0.893
Cc1c(C(=O)N2CCOCC2)cc2nc(=O)n(-c3ccc(F)cc3)c-2cc1-c1ccccc1	1.04
COc1cccc(C2CC(c3ccccc3)=CC2=O)c1 (stereo not given)	1.06
COC(=O)[C@@]12Oc3ccc(-c4cc(F)ccc4C#N)c(O)c3C(=O)C1=C(N)C[C@H](C)[C@H]2O	1.28
COC(=O)C1=C(C)N(Cc2ccccc2)C(=S)NC1c1cccc(F)c1 (stereo not given)	0.957
C[C@H]1C[C@H]2CC(=O)N3CCC[C@H]3C(=O)N2[C@H]1c1ccccc1	1.06
COc1ccc([C@H]2c3cc4c(cc3C[C@@H](C)[C@@H]2CO)OCO4)cc1OC	1.07
c1ccc(CCCc2cccc(CCCc3ccccc3)n2)cc1	1.06
C=C(C)[C@]1(O)C[C@@H](C)[C@]2(O)[C@@H]3CCC4(OCCO4)[C@@]34CC(C)=C[C@@]2(O4)C1=O	1.05
COc1ccc2c(c1)C[C@@H](C)O[C@]21C(=O)Nc2ccccc21	1.02
CC(=O)C1=C(C)N(Cc2ccc(Cl)cc2)C(=S)NC1c1ccc(F)cc1 (stereo not given)	0.87
COC(=O)/C=C/c1cc(OC)c(OC)c(OC)c1	1.17
c1ccc(CCN2CCCC(CNCc3ccccc3)C2)cc1 (stereo not given)	1.02
COC(=O)C/C=C/[C@H](C)[C@H](NC(=O)C(F)(F)F)c1ccc([N+](=O)[O-])cc1	0.915

Structure (SMILES)	growth
CCOc1ccccc1[C@H]1O[C@@H](c2cccc3ccccc23)C(C(=O)OC)=C1C(=O)OC	1.24
COc1ccc(N2C(=O)C3=C(C(CC(C)C)=NCC(C)(C)N3)C2c2cccc(C(F)(F)F)c2)cc1 (stereo not given)	0.906
COc1ccc(-n2nc3cc2COC[C@H](c2ccccc2)NC(=O)CC2(CCCCC2)CNC(=O)c2cccc-3c2)cc1	1.15
CC(C)CC1=NCCNC2=C1C(c1cccc(C(F)(F)F)c1)NC2=O (stereo not given)	1.02
C[C@H]1C[C@H]2CC(=O)N3CCC[C@@H]3C(=O)N2[C@H]1c1ccccc1	0.914
CC(=O)C1=C2C=CCCN2C(=O)NC1c1cc(C)cc(F)c1 (stereo not given)	1.08
C#CCOC[C@@H](NC(=O)CC1(CNC(=O)c2cccc3cnnn23)CCCCC1)c1ccccc1	1.09
CC(C)C1=C[C@H]2[C@H]3C(=O)C(c4ccc(O)cc4)=C[C@@]3(c3ccc(O)c(O)c3)[C@@H]1C(=O)[C@]2(C)O	0.953
Cc1ccc(S(=O)(=O)Oc2c(C[C@@]34CCCCCCC3=Nc3ccccc34)occc2=O)cc1	1.06
C=CC[C@@]12C[C@H]3[C@@H](O)[C@@](CC=C)(C1=O)C(=O)[C@@](C(=O)c1ccccc1)(C2=O)C3(C)C	1.7
CC(C)c1cc2cc(O)cc(O)c2c(=O)o1	0.983
COc1ccc([C@@]23Oc4cc(OC)cc(OC)c4[C@]2(NCc2ccccc2)C(=O)C[C@H]3c2ccccc2)cc1	0.901
COC(=O)c1cc2c(c3c4cc(C)ccc4n(S(=O)(=O)c4ccc(C)cc4)c13)C(=O)N(Cc1ccccc1)C2	1.1
Cc1cc(O)c2c(=O)cc(C(=O)O)oc2c1	1.2
COC(=O)C/C=C/[C@H](C)[C@@H](NC(=O)[C@H](Cc1ccccc1)NC(=O)OC(C)(C)C)C1CC1	1.09
CC(C)=CCC1=CC(O)CCC1=O (stereo not given)	1.08
Cc1cc(N)n(Cc2ccccc2C)n1	0.991
COC(=O)c1[nH]c2ccc(OC)cc2c1[C@]12CCN(C(=O)Cc3ccccc3F)[C@H]1Nc1ccccc12	1.03
C/C=C/C=C/C(=O)c1c(O)c(C)c(O)c(C)c1OC	1.01
C[C@H]1[C@@H]2C[C@@]3(O[C@H](C4CCNCC4)N=C3C[C@@H]1c1ccccc1)N(Cc1ccncc1)C2=O	1.23
COc1ccc(-c2cnc3c(-c4cccnc4)cnn3c2N)cc1	1.01
COc1cccc(C2NC(=O)N3CCC=CC3=C2C(C)=O)c1 (stereo not given)	1.02

Structure (SMILES)	growth
CC(C)Cc1n[nH]c2c1[C@@H](c1ccc(F)cc1)N([C@H]1CC[C@H](N(C)C)CC1)C2=O	1.01
C=CCN1c2cc(OC)cc(OC)c2[C@@]2(O)C(=O)C1(c1ccc(Br)cc1)[C@H](c1ccccc1)[C@@H]2C(=O)OC	0.616
CC(C)CC1=NCCN(C)C2=C1C(c1ccccc1)NC2=O (stereo not given)	1.12
CCN(CC)C(=O)c1nnc(C(=O)OC)c2c1[nH]c1ccccc12	1.16
COC(=O)[C@@]12Oc3ccc(-c4ccc(C)o4)c(O)c3C(=O)C1=C(N)C[C@H](C)[C@H]2O	1.14
COc1ccc(/C=C/[C@H]2c3ccc(OC)cc3O[C@@H]3c4ccc(OC)cc4O[C@@H](c4ccc(OC)cc4)[C@@H]32)cc1	1.06
CC(=O)C1=C2C=CCCN2C(=O)NC1c1ccc(F)c(F)c1 (stereo not given)	1.07
CC1=CC[C@@H](C)OC2(C1)C(=O)Nc1ccccc12 (stereo not given in full)	0.945
COC(=O)C1=C(O)C(C)(Cc2ccccc2)C(=O)C(C)=C1C (stereo not given)	1.07
COC(=O)c1c2n[nH]c1-c1cccc(c1)C(=O)NCC1(CCCCC1)CC(=O)NCCC2	1.03
COC(=O)CCC[C@H](C)[C@@H](NS(=O)(=O)c1ccc(C)cc1)C(C)(C)C	0.848
Cc1ccc(C2C3=C(NC(C)(C)CN=C3c3ccccc3)C(=O)N2c2ccccc2)cc1 (stereo not given)	0.977
C=C(C)CC[C@H](Cc1c(O)cc(O)c2c1O[C@H](c1ccc(O)cc1O)CC2=O)C(=C)C	0.736
C#CCOC[C@H](NC(=O)[C@@H]1C[C@@H](O)CN1C(=O)c1cccc2cnnn12)c1ccccc1	1.17
COC(=O)C1=C(C)N(Cc2ccccc2)C(NCC2CC2)=NC1c1ccccc1 (stereo not given)	1.01
CC(=O)c1c(O)cc(O)cc1Br	1.2
O=c1c2ccccc2oc2c(O)cccc12	0.828
COc1cccc(C2NC(=S)N(Cc3ccc(Br)cc3)C(C)=C2C(C)=O)c1 (stereo not given)	0.847
COc1ccc(-c2cnc3c(-c4ccc(F)cc4)cnn3c2N)cc1	1.14
CCCC[C@]12Cc3cc(OC)c(OC)cc3[C@H](O1)C1=C(CC(C)(C)CC1=O)O2	0.893
O=C(c1c(O)cc(O)cc1Nc1ccnn1CC1CCCCC1)N1Cc2cn[nH]c2C1	0.98
COCn1c2ccccc2c2nnc(C(C)=O)nc21	1.12

Structure (SMILES)	growth
CC(C)Cc1n[nH]c2c1C(c1ccccc1Cl)N(c1ccc(N(C)C)cc1)C2=O (stereo not given)	0.982
Cc1ccc(/C=C/c2cc(/C=C/c3ccc(C)cc3)[nH]n2)cc1	1.16
CCCN1C(=O)c2[nH]nc(C)c2C1c1ccc(C)cc1 (stereo not given)	0.926
Cc1ccc(C2NC(=O)c3c2c(C(C)C)nn3-c2ccc(F)cc2)cc1 (stereo not given)	1.05
C=CCOC(=O)/C=C/NC(=O)c1ccccn1	1.11
C=CCN1C(=O)C2=C(C(CC(C)C)=NCCN2)C1c1ccc(Br)cc1 (stereo not given)	1
CCOC(=O)c1nnc(-c2ccccc2NC(=O)OC(C)(C)C)c(=O)[nH]1	0.964
C=CCN1C(=O)C2=C(C(C)=NCCN2C)C1c1ccc2c(c1)OCO2 (stereo not given)	1.11
C=CCN1C(=O)c2[nH]nc(COC)c2C1c1ccc2c(c1)OCO2 (stereo not given)	1.09
COC(=O)c1[nH]c2ccc(OC)cc2c1[C@]12CCN(C(=O)c3ccc(OC)cc3)[C@H]1Nc1ccccc12	0.966
COc1ccc(COc2c(-c3ccccc3)oc3ccccc3c2=O)cc1OC	1.04
COC(=O)C1=C(C)N(CC#Cc2ccc(OC)cc2)C(=O)NC1c1ccccc1 (stereo not given)	0.985
CC(=O)OC[C@H]1O[C@H](C#CCC2CCCCC2)C=C[C@H]1OC(C)=O	0.874
Cc1cc(O)c2c(c1)O[C@]1(C)C(=C(O)CC[C@H]1O)C2=O	0.832
CC(C)=CCc1cc(O)c(O)c2[nH]c3ccccc3c(=O)c12	0.785
COc1oc(C)cc(=O)c1-c1ccc([N+](=O)[O-])cc1	1.16
CC1=NCC(C)(C)NC2=C1C(c1cccc(C(F)(F)F)c1)N(Cc1ccccc1)C2=O (stereo not given)	1.07
CC(=O)OC[C@H]1O[C@H](c2ccc(C(C)(C)C)cc2)C=C[C@H]1OC(C)=O	0.901
COc1ccc2c(=O)c3cc(C(F)(F)F)ccc3oc2c1OCC=C(C)C	0.955
